Experimental findings from US20240182561A1, “CALCIUM VOLTAGE-GATED CHANNEL AUXILIARY SUBUNIT GAMMA 1 (CACNG1) BINDING PROTEINS AND CACNG1-MEDIATED DELIVERY TO SKELETAL MUSCLE” (Regeneron Pharmaceuticals, Inc., priority 2022, published 2024) are described below.

For the assay, the system named is C2C12 myotubes. Description: Glucocorticoid responsive gene induction in C2C12 myotubes (qPCR). The note with it: 24 or 48 hours of treatment, compared to untreated; 100 nM M3123 or about 25 nM conjugate; FIGS. 26A-26C. Format: cell-based, mouse. The procedure: After 24 hours, cells were differentiated using DMEM+2% horse serum (Gibco, catalog #16050130). […] DAR 3.9), 24.4 nM […] (anti-CACNG1 conjugated with budesonide; DAR 4.1) or 25.6 nM of […] (anti-CACNG1 conjugated with budesonide; […] Myotubes were treated for 48 hours. For the 24-hour treatment, myotubes were treated with the same concentrations of reagents after 4 days of differentiation for 24 hours. On completion of treatment, media was removed from cells and 1 ml of Trizol reagent (Invitrogen, catalog #15596026) was added per well, before samples were frozen at -80° C. Total RNA was isolated using MagMAXTM-96 for Microarrays Total RNA Isolation Kit (Ambion by Life Technologies, catalog #AM1839) according to the manufacturer's instructions. Isolated RNA was treated with DNAse I (Thermo Scientific, catalog #EN0525) and reverse transcribed using the SuperScript VILO cDNA synthesis Master Mix (Invitrogen, catalog #11754050). Synthesized cDNA was diluted 10-fold in nuclease free water and then assayed by qPCR for the following genes using the listed TaqMan assays: Klf15 (Mm00517792_m1), Fkbp5 (Mm00487406_m1), Pdk4 (Mm01166879_m1), Ppib (Mm00478295_m1) and Actb (Mm00607939_s1). […] Results were analyzed by the ΔΔCt method, and data were analyzed using 2-way ANOVA with Dunnett's multiple comparisons test comparing treated groups to untreated, with p<0.05 significance.

B1: REGN14570-M3123 (conjugate)
heavy: QVQLQQWGAGLLKPSATLSRTCAVYGGSFSGYYWNWIRQSPGKGLEWIGEILHSGRTNYNPSLKSRVTISVDTSKNQFSLKLTSVTAADTAVYYCAGRIAARHGWFDPWGQGTLVTVSS[human IgG1 constant region with changes omitted here]
light: DIQMTQSPSSVSTSVGDRVTISCRASQDIRKWLAWYQQKPGKAPKLLIYATSSLQSGVPSRFSGSGSGTDFTLTISSLQPEDFATYFCQQANSFPFTFGQGTKLEIKRTVAAPSVFIFPPSDEQLKSGTASVVCLLNNFYPREAKVQWKVDNALQSGNSQESVTEQDSKDSTYSLSSTLTLSKADYEKHKVYACEVTHQGLSSPVTKSFNRGEC
In the case of B1, the “C2C12 myotube expression of Klf15, Pdk4, and Fkbp5” value was “significant increases”.

B2: REGN14572-M3123 (conjugate)
heavy: QVQLVESGGGVVQPGRSLRLSCAASGFTFSTYGMHWVRQAPGKGLEWVAVIWHDGSDKYYVDSVKGRFSIARDNSKNTLYLQMNSLRVEDTGIYYCARRGIRGTVFDHWGLGTLVTVSS[human IgG1 constant region with changes omitted here]
light: DIQMTQSPSTLSASVGDRVTLTCRASQSISNKLAWYQQKPGKAPNLLIYKASNLESGVPSRFSGSGSGTEFTLTISSLQPDDFATYYCQQYNSYSWTFGQGTKVEIKRTVAAPSVFIFPPSDEQLKSGTASVVCLLNNFYPREAKVQWKVDNALQSGNSQESVTEQDSKDSTYSLSSTLTLSKADYEKHKVYACEVTHQGLSSPVTKSFNRGEC
In the case of B2, the “C2C12 myotube expression of Klf15, Pdk4, and Fkbp5” value was “significant increases”.
